From PubChem BioAssay AID1347416 (National Center for Advancing Translational Sciences (NCATS), 2020)
The whole screen tested about 4,100 compounds, of which about 1,600 (39%) were called active. Inconclusive results, whose numbers are uncertain, are shown with a selection of clear calls. The call rests on the fitted dose curve; in most records, active means well fitted inhibition curve with a large enough effect; inconclusive means small, poorly fitted or top-dose-only effect; inactive means no such curve, though single readings can be large or run the other way. Potencies beside an inconclusive call are fits to weak or partial responses and may not hold up.

Experiment: qHTS Validation assay for Inhibitors of Plasmodium falciparum Dd2 growth in vitro; further: nearly all actives have a fitted effect of over 70% in size
Conditions: P. falciparum Dd2 in RBCs, SYBR Green growth, 72 h; activity change, negative = inhibition: at 28.7 µM (top of the series) unless noted
How it was run: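 P. falciparum Dd2-infected red blood cells (2.5% hematocrit, 0.3% parasitemia) grown 72 h at 37 °C under 5% O2 with compounds in a titration, 29 uM to 0.5 nM final. Growth read as SYBR Green-1 fluorescence after ~16 h lysis; artesunate 300 nM as positive control.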
On the % scale 0 is the no-effect control and ±100 the full control effect; potency means the concentration at half of the fitted maximal effect; tags describe the fitted curve by direction and shape.

SMILES	Potency	activity change, negative = inhibition
Oc1cccc(C(Nc2nccs2)c2ccc3cccnc3c2O)c1 (centres undefined)	active: 7.5 µM	–
COc1ccc(-c2nnc(C[C@@H]3C[C@@H](C(C)C)[C@H](CN4CCC(O)CC4)C=C3C)o2)cc1	active: 9.44 µM	–
CCC(C)NC(=O)CN1CN(c2ccccc2)C2(CCN(C(=O)Nc3ccccc3C)CC2)C1=O (centres undefined)	inconclusive: 21.1 µM [inhibitor, partial curve, poor fit]	–
COc1ccc(Nc2cc(C)c3cc(NC(=O)Cc4c(F)cccc4Cl)ccc3n2)cc1	inconclusive: 5.31 µM [inhibitor, full curve]	–
CC(C)CN1CCN(C(=O)c2ccc3c(c2)CC(=O)N3Cc2ccc(F)cc2)CC1	inconclusive: 21.1 µM [inhibitor, single point]	–
CCOC(=O)C(=Cc1ccc(-n2ccnc2)cc1)C(=O)OCC	inconclusive: 21.1 µM [inhibitor, single point]	–
CC(C)(C)c1ccc(-c2cc(C[C@H]3CNCC[C@H]3CC(=O)NCc3cccnc3)no2)cc1	inconclusive: 5.31 µM [inhibitor, single point]	–
CC(C)CN1CCN(C(=O)CCC[C@@H]2[C@H]3CCCN4CCC[C@@H](CN2Cc2cccnc2)[C@@H]34)CC1	inactive	–
CC1(c2ccccn2)Nc2ccccc2-c2nc3ccccc3n21 (centres undefined)	active: 5.31 µM	–
CCOc1ccc(-c2cc3c(=O)n(CCNC(=O)c4cccc(N(C)C)c4)ccn3n2)cc1	inconclusive: 21.1 µM [inhibitor, single point]	–
CCc1ccc(C(=O)c2cn(CC(=O)Nc3ccc4c(c3)OCO4)c3ccc(F)cc3c2=O)cc1	inconclusive: 13.3 µM [inhibitor, single point]	–
COc1cccc(C(=O)Nc2cccc(-c3nnc4n3CCCC4)c2)c1OC	inconclusive: 21.1 µM [inhibitor, single point]	–
CN(C(=O)c1cc2nc(-c3ccc4c(c3)OCO4)cc(C(F)(F)F)n2n1)c1ccc(OC(F)(F)F)cc1	–	inconclusive: -41.3% [inhibitor]
COc1ccc2cc1Nc1ccc(cc1)C[C@H](NCc1ccc3c(c1)CCO3)C(=O)N(C)[C@H](C(=O)NCCC(C)C)C2	active: 3.35 µM	–
Cc1ccc(C(=O)c2oc3ccccc3c2NC(=O)c2cc(-c3cc(C)ccc3O)n[nH]2)cc1	inconclusive: 0.842 µM [inhibitor, full curve, poor fit]	–
COc1ccccc1C1CC(c2ccccc2)=NN1C(=O)c1ccccc1 (centres undefined)	active: 2.37 µM	–
COc1cc(NC(=O)C2CN(S(=O)(=O)C3CC3)CC23CCCCC3)cc(OC)c1 (centres undefined)	inconclusive: 16.8 µM [inhibitor, single point]	–
O=C([C@@H]1C[C@H](Oc2ccccc2)CN1C(=O)C1(c2ccccc2)CC1)N1CCCC1	inconclusive: 21.1 µM [inhibitor, single point]	–
CC1CC(=S)Nc2ccccc2N1C(=O)Nc1ccccc1 (centres undefined)	inconclusive: 21.1 µM [inhibitor, single point]	–
Cc1ccc(OCc2nc(C3CCN(C(=O)c4noc(C)c4CN4CCCCC4)CC3)no2)cc1	inconclusive: 18.8 µM [inhibitor, single point]	–
CN(C1CCCCC1)S(=O)(=O)c1ccc2c(c1)c(=O)c(C(=O)N1CCN(c3ccccc3F)CC1)cn2C	inactive	–
Cc1ncc2n1C(=O)N(C1CCN(C(=O)Nc3ccc(Cl)cc3)CC1)C2	inconclusive: 18.8 µM [inhibitor, partial curve, poor fit]	–

SMILES	Potency	activity change, negative = inhibition
COc1cccc(CN2C(=O)CCCCC2C(=O)NCCCN2CCc3ccccc3C2)c1 (centres undefined)	inconclusive: 16.8 µM [inhibitor, single point]	–
NS(=O)(=O)c1ccc(N/N=C/c2cn(-c3ccccc3)nc2-c2cccs2)cc1	active: 0.335 µM	–
COc1ccccc1CNC(=O)[C@@H](C)C1CC[C@@]2(C)CC[C@H](NC(=O)c3cncnc3)[C@@H](C)[C@@H]2[C@H]1O (some centres undefined)	active: 2.37 µM	–
COc1cc2c(cc1OC)C(COc1ccc3c(C)cc(=O)oc3c1)N(C(=O)Cc1ccccc1)CC2 (centres undefined)	inconclusive: 5.31 µM [inhibitor, full curve, poor fit]	–
CC(C)CN(Cc1cc(=O)oc2cc(-c3ccccc3)c(O)cc12)CC(C)C	inconclusive: 0.596 µM [inhibitor, full curve, poor fit]	–
CC(C)c1noc(-c2cccn3c(CNC(=O)c4nccc5ccccc45)nnc23)n1	inactive	–
Cc1nc2c(c(-c3ccc(O)cc3)n1)CN(C(=O)c1cccc(Cl)c1)CC2	inactive	–
CCc1ccc(N2CC(c3noc(-c4nccc5ccccc45)n3)CC2=O)cc1 (centres undefined)	inactive	–
CCCn1c2c(c(=N)c3c1CCC3)CCC2	active: 13.3 µM	–
CN1CCN(CCNC(=O)c2ccc3c(c2)N(S(=O)(=O)c2ccccc2F)CC3)CC1	inconclusive: 23.7 µM [inhibitor, single point]	–
O=C1Nc2ccc(-c3ccc(Cl)cc3)cc2C(=O)N2CCN(C(=O)c3ccccc3)C[C@H]12	inactive	–
O=C1CC(c2ccccc2)N(Cc2ccc(F)cc2F)CCCCCCN1 (centres undefined)	inconclusive: 18.8 µM [inhibitor, partial curve, poor fit]	–
O=C1NCc2ccccc2CC12CCCN(CC1=CCCCC1)C2 (centres undefined)	inconclusive: 3.31 µM [inhibitor, full curve]	–
Cc1ccc(/C=C/C(=O)Nc2cc(C)on2)cc1	inconclusive: 23.7 µM [inhibitor, single point]	–
CCOC(=O)c1cc2c(=O)n3ccccc3nc2n(Cc2ccco2)c1=NC(=O)c1cccc(Br)c1	inconclusive: 16.8 µM [inhibitor, single point]	–
CC1=NS(=O)(=O)N(Cc2ccc(F)c(F)c2)C=C1C(=O)O	inactive	–
Cc1ccc(C)c(N2CCN(C(=O)c3ccc(Cn4c(=S)[nH]c5ccc(N6CCOCC6)cc5c4=O)cc3)CC2)c1	inconclusive: 21.1 µM [inhibitor, single point]	–
Cc1nn(-c2nnc(NCc3ccccc3)nn2)c(C)c1Br	inconclusive: 0.842 µM [inhibitor, full curve]	–
CCN1CCN(Cc2ccc(NC(=O)c3cc(NC(=O)c4cc5cccc(OC)c5o4)cc(OC)c3)cc2C(F)(F)F)CC1	inconclusive: 1.33 µM [inhibitor, full curve, poor fit]	–
CCOC(=O)COn1c(-n2nc(C)cc2C)nc2ccccc2c1=O	active: 9.44 µM	–
O=c1c2cc(-c3cccs3)nn2ccn1CC(O)c1ccccc1 (centres undefined)	inconclusive: 21.1 µM [inhibitor, single point]	–
CN(C)CCNC(=O)c1cc2c(s1)-c1ccc(Cl)cc1SC2	inconclusive: 13.3 µM [inhibitor, partial curve]	–

SMILES	Potency	activity change, negative = inhibition
COCC(=O)Nc1ccc2c(c1)OCC(=O)N2Cc1ccc(C)cc1	inactive	–
CCOc1ccc(CC(=O)N2CCC[C@H]2c2nc(-c3ccc(C)cc3)no2)cc1	inactive	–
CCOc1ccccc1CN1CCC2(CCN(C(=O)C(C)(C)C)CC2)Oc2ccccc21	inconclusive: 21.1 µM [inhibitor, single point]	–
CCN1CCN(C(=O)c2ccc3c(c2)N(Cc2ccc(Cl)cc2)C(=O)c2ccccc2S3=O)CC1 (centres undefined)	active: 0.668 µM	–
CN(C)c1ccc(CC(=O)N2CC[C@@](C)(O)[C@@H](O)C2)cc1	inactive	–
CC(OC(=O)c1ccc(OCC2CCCO2)cc1)C(=O)N(C)Cc1ccccc1 (centres undefined)	inactive	–
COC[C@H]1CCCN1[C@@H]1[C@H](O)[C@H](CO)O[C@@H]1CN(Cc1cccc(Cl)c1)Cc1cccc(Cl)c1	active: 10.6 µM	–
O[C@H]1CC[C@@H](Cc2cc(-c3ccc(F)cc3)on2)O[C@@H]1CNCc1ccccc1Cl	inconclusive: 2.73 µM [inhibitor, full curve, poor fit]	–
O=C(NC1CCCN(c2cc(-c3ccc(F)cc3)[nH]n2)C1)c1ccsc1 (centres undefined)	inconclusive: 6.68 µM [inhibitor, single point]	–
Nc1nc(C2CC(NC(=O)c3csc4c3CCCC4)C2)cc(=O)[nH]1 (centres undefined)	inactive	–
Fc1ccccc1CN1CCC[C@H]1c1nc(-c2ccnc(N3CCOCC3)c2)no1	inconclusive: 15.3 µM [inhibitor, partial curve]	–
COc1ccccc1N1CCN(C(=O)c2ccc3c(=O)n(Cc4ccc5c(c4)OCO5)c(=O)[nH]c3c2)CC1	active: 2.99 µM	–
O=C1NCCCCCCN(C(=O)C2CCC2)[C@H]2C[C@H](c3nc(-c4cccnc4)no3)C[C@@H]12	inactive	–
Cc1nc(-n2nc(C)c(Cc3ccc4c(c3)OCO4)c2C)sc1C(=O)Nc1cccc(Cl)c1	inconclusive: 18.8 µM [inhibitor, single point]	–
Cc1noc(CN(C)C(=O)C2C3C(=O)N(Cc4ccc(C)c(C)c4)C[C@@]34C=C[C@@H]2O4)n1 (some centres undefined)	inactive	–
CCC(CC)NC(=O)C1CCc2nc(N3CCN(C(=O)C(C)C)CC3)sc2C1 (centres undefined)	inconclusive: 18.8 µM [inhibitor, partial curve, poor fit]	–
O=C(Nc1c(C(=O)c2ccccc2)oc2ccccc12)c1cc(-c2ccccc2O)n[nH]1	inconclusive: 2.11 µM [inhibitor, full curve]	–
COc1ccc(CN2C(=O)[C@@H]3C[C@@H](CN3Cc3cccs3)Oc3ccccc32)cc1	inconclusive: 34.4 µM [inhibitor, single point]	–
CSC1=NCCN1C(=O)c1ccc(S(=O)(=O)N(C)C)cc1	inconclusive: 0.0007 µM [inhibitor]	–
CCOc1ccccc1C1NC(=O)N(CC(=O)Nc2ccc(OC)cc2)C2=C1C(=O)OC2 (centres undefined)	inactive	–
